# Test results as given in the supplement of paper PMC8728848.
# The other results are listed elsewhere or left out.
# B1: UEA-I (Ulex europaeus), P22972 (protein)
# chain: SDDLSFKFKNFSQNGKDLSFQGDASVIETGVLQLNKVGNNLPDETGGIARYIAPIHIWNCNTGEVASFITSFSFFMETSANPKAATDGLTFFLAPPDSPLRRAGGYFGLFEDTKDNDSSYQTVAVEFDTIGSPVNFDDPGFPHIGIDVNRVKSINAERWNKRYGLNNVANVEIIYEASSKTLTASLTYPSDQTSISVTSIVDLKEILPEWVSVGFSGGTYIGRQATHEVLNWYFTSNLIN
# Experiments:
# Assay in all cases: glycan array binding signal (z-score within array); higher = stronger binding
# Details in all cases: glycan notation: IUPAC condensed, linker removed
# [1] = molecular target: Neu5Ac(a2-3)Gal(b1-3)GlcNAc6S
# Method in brief: (§1)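 The binding signal is a Z-score computed within each array. Data were drawn from 3228 arrays in the Consortium for Functional Glycomics database, restricted to those with a known protein sequence. Scores were averaged over arrays of the same protein sequence at different concentrations or buffers, and over linkers, and negative values can be taken as non-binding.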
# [2] = molecular target: Neu5Ac(a2-3)Gal(b1-3)[Fuc(a1-4)]GlcNAc
# Method in brief: as §1
# [3] = molecular target: Neu5Ac(a2-3)Gal(b1-3)[Fuc(a1-4)]GlcNAc(b1-3)Gal(b1-3)[Fuc(a1-4)]GlcNAc
# Method in brief: as §1
# [4] = molecular target: Neu5Ac(a2-3)Gal(b1-3)[Fuc(a1-4)]GlcNAc(b1-3)Gal(b1-4)[Fuc(a1-3)]GlcNAc
# Method in brief: as §1
# [5] = molecular target: Neu5Ac(a2-3)Gal(b1-3)[Neu5Ac(a2-3)Gal(b1-4)]GlcNAc
# Method in brief: as §1
# [6] = molecular target: Neu5Ac(a2-3)Gal(b1-3)[Neu5Ac(a2-6)]GalNAc
# Method in brief: as §1
# [7] = molecular target: Neu5Ac(a2-3)Gal(b1-4)Glc
# Method in brief: as §1
# [8] = molecular target: Neu5Ac(a2-3)Gal(b1-4)GlcNAc
# Method in brief: as §1
# [9] = molecular target: Neu5Ac(a2-3)Gal(b1-4)GlcNAc(b1-2)Man(a1-3)[GlcNAc(b1-2)Man(b1-4)GlcNAc(b1-2)Man(a1-6)]Man(b1-4)GlcNAc(b1-4)GlcNAc
# Method in brief: as §1
# [10] = molecular target: Neu5Ac(a2-3)Gal(b1-4)GlcNAc(b1-2)Man(a1-3)[Neu5Ac(a2-6)Gal(b1-4)GlcNAc(b1-2)Man(a1-6)]Man(b1-4)GlcNAc(b1-4)GlcNAc
# Method in brief: as §1
# [11] = molecular target: Neu5Ac(a2-3)Gal(b1-4)GlcNAc(b1-3)Gal
# Method in brief: as §1
# [12] = molecular target: Neu5Ac(a2-3)Gal(b1-4)GlcNAc(b1-3)Gal(b1-3)GlcNAc
# Method in brief: as §1
# [13] = molecular target: Neu5Ac(a2-3)Gal(b1-4)GlcNAc(b1-3)Gal(b1-4)GlcNAc
# Method in brief: as §1
# [14] = molecular target: Neu5Ac(a2-3)Gal(b1-4)GlcNAc(b1-3)Gal(b1-4)GlcNAc(b1-3)Gal(b1-4)GlcNAc
# Method in brief: as §1
# [15] = molecular target: Neu5Ac(a2-3)Gal(b1-4)GlcNAc(b1-3)Gal(b1-4)[Fuc(a1-3)]GlcNAc
# Method in brief: as §1
# [16] = molecular target: Neu5Ac(a2-3)Gal(b1-4)GlcNAc(b1-3)GalNAc
# Method in brief: as §1
# [17] = molecular target: Neu5Ac(a2-3)Gal(b1-4)GlcNAc(b1-6)[Gal(b1-3)]GalNAc
# Method in brief: as §1
# [18] = molecular target: Neu5Ac(a2-3)Gal(b1-4)GlcNAc(b1-6)[Neu5Ac(a2-3)Gal(b1-3)]GalNAc
# Method in brief: as §1
# [19] = molecular target: Neu5Ac(a2-3)Gal(b1-4)GlcNAc6S
# Method in brief: as §1
# [20] = molecular target: Neu5Ac(a2-3)Gal(b1-4)[Fuc(a1-3)]GlcNAc
# Method in brief: as §1
# [21] = molecular target: Neu5Ac(a2-3)Gal(b1-4)[Fuc(a1-3)]GlcNAc(b1-3)Gal
# Method in brief: as §1
# [22] = molecular target: Neu5Ac(a2-3)Gal(b1-4)[Fuc(a1-3)]GlcNAc(b1-3)Gal(b1-4)GlcNAc
# Method in brief: as §1
# [23] = molecular target: Neu5Ac(a2-3)Gal(b1-4)[Fuc(a1-3)]GlcNAc(b1-3)Gal(b1-4)[Fuc(a1-3)]GlcNAc(b1-3)Gal(b1-4)[Fuc(a1-3)]GlcNAc
# Method in brief: as §1
# [24] = molecular target: Neu5Ac(a2-3)Gal(b1-4)[Fuc(a1-3)]GlcNAc(b1-3)GalNAc
# Method in brief: as §1
# [25] = molecular target: Neu5Ac(a2-3)Gal(b1-4)[Fuc(a1-3)]GlcNAc(b1-6)[Gal(b1-3)]GalNAc
# Method in brief: as §1
# [26] = molecular target: Neu5Ac(a2-3)Gal(b1-4)[Fuc(a1-3)]GlcNAc(b1-6)[Neu5Ac(a2-3)Gal(b1-3)]GalNAc
# Method in brief: as §1
# [27] = molecular target: Neu5Ac(a2-3)Gal(b1-4)[Fuc(a1-3)]GlcNAc6S
# Method in brief: as §1
# [28] = molecular target: Neu5Ac(a2-3)Gal6S(b1-4)GlcNAc
# Method in brief: as §1
# [29] = molecular target: Neu5Ac(a2-3)Gal6S(b1-4)[Fuc(a1-3)]GlcNAc
# Method in brief: as §1
# [30] = molecular target: Neu5Ac(a2-3)GalNAc
# Method in brief: as §1
# [31] = molecular target: Neu5Ac(a2-3)GalNAc(b1-4)GlcNAc
# Method in brief: as §1
# [32] = molecular target: Neu5Ac(a2-3)[GalNAc(b1-4)]Gal(b1-4)Glc
# Method in brief: as §1
# [33] = molecular target: Neu5Ac(a2-3)[GalNAc(b1-4)]Gal(b1-4)GlcNAc
# Method in brief: as §1
# [34] = molecular target: Neu5Ac(a2-3)[GalNAc(b1-4)]Gal(b1-4)GlcNAc(b1-3)GalNAc
# Method in brief: as §1
# [35] = molecular target: Neu5Ac(a2-3)[Neu5Ac(a2-6)]GalNAc
# Method in brief: as §1
# [36] = molecular target: Neu5Ac(a2-6)Gal
# Method in brief: as §1
# [37] = molecular target: Neu5Ac(a2-6)Gal(b1-3)GlcNAc(b1-3)[Gal(b1-4)GlcNAc(b1-6)]Gal(b1-4)Glc
# Method in brief: as §1
# [38] = molecular target: Neu5Ac(a2-6)Gal(b1-4)Glc
# Method in brief: as §1
binder,measurement,setting,value
B1,glycan array binding signal (z-score),[1],-0.174
same,glycan array binding signal (z-score),[2],-0.181
same,glycan array binding signal (z-score),[3],-0.17
same,glycan array binding signal (z-score),[4],-0.186
same,glycan array binding signal (z-score),[5],-0.187
same,glycan array binding signal (z-score),[6],-0.17
same,glycan array binding signal (z-score),[7],-0.185
same,glycan array binding signal (z-score),[8],-0.181
same,glycan array binding signal (z-score),[9],-0.177
same,glycan array binding signal (z-score),[10],-0.178
same,glycan array binding signal (z-score),[11],-0.168
same,glycan array binding signal (z-score),[12],-0.178
same,glycan array binding signal (z-score),[13],-0.184
same,glycan array binding signal (z-score),[14],-0.183
same,glycan array binding signal (z-score),[15],-0.178
same,glycan array binding signal (z-score),[16],-0.178
same,glycan array binding signal (z-score),[17],-0.183
same,glycan array binding signal (z-score),[18],-0.179
same,glycan array binding signal (z-score),[19],-0.165
same,glycan array binding signal (z-score),[20],-0.177
same,glycan array binding signal (z-score),[21],-0.185
same,glycan array binding signal (z-score),[22],-0.175
same,glycan array binding signal (z-score),[23],-0.177
same,glycan array binding signal (z-score),[24],-0.147
same,glycan array binding signal (z-score),[25],-0.172
same,glycan array binding signal (z-score),[26],-0.177
same,glycan array binding signal (z-score),[27],-0.191
same,glycan array binding signal (z-score),[28],-0.178
same,glycan array binding signal (z-score),[29],-0.182
same,glycan array binding signal (z-score),[30],-0.177
same,glycan array binding signal (z-score),[31],-0.181
same,glycan array binding signal (z-score),[32],-0.187
same,glycan array binding signal (z-score),[33],-0.179
same,glycan array binding signal (z-score),[34],-0.114
same,glycan array binding signal (z-score),[35],-0.182
same,glycan array binding signal (z-score),[36],-0.181
same,glycan array binding signal (z-score),[37],-0.177
same,glycan array binding signal (z-score),[38],-0.182
